Among the data in the RNAGym collection of RNA variant scans (doi:10.7554/elife.90254) are self-cleavage values, retold here.

B1: LINE1-full (parent)
chain: UACGUAGGUGGUUUUCCCCUGAUAGUGCUAAGGGGGCCUGGAAGUUUGGACUGGGCAGAGCUCAACACAGCGUGGCAAAGUGGCUGUGGCUAGACUGCCUCUCUGGAUUCCUCGUCACUCAGCAGGGCAUCUCUGAGAGAAAUGCC

Read counts are not given, so values of variants with three or more changes are uncertain.

The variants in this data set derive from B1. In words: self-cleavage, relative activity (ratio to wild type); higher = more cleavage; in vitro, sequencing; the parent is a self-cleaving ribozyme.
In the case of UACGUAGGUGGUUUCCCCCUGAUAGAGCUAAGGGGGCCUGGAAGUUUGGACUGGGCAGAGCUCAACACAGCGUGGCAAAGUGGCUGUGGCUAGACUGCCUCUCUGGAUUCCUCGUCACUCAGCAGGGCAUCUCUGAGAGAAAGGCC [U15C U26A U143G], the self-cleavage worked out at 1.88. On to UGCAUAGGUGGUUUUCCCCUGAUAGUGCUAAGGGGGCCUGGAAGUUGGGACUGGGCAGAGCUCAACACAGUGUGGCAAAGUGGCUGUGGCUAGACUGCCUCUCUGGAUUCCUCGUCACUCAGCAGGGCAUCUCUGAGAGAAAUGCC [A2G G4A U47G C71U], for which the self-cleavage was determined as 0.7. The result for UACGUAGGUGGUUUUCCCCUGAUAGUGCUAAGGGGGCCUGGAAGUUUGGACUGGGCCGAGCUCAACACAGCGUGGCAAAGUGGCCGUGGCUAGACUGCCUCUCUGGAUUCCUCGUCACUCAGCAGGGCUUCUCUGAGAGAAAUGCC [A57C U85C A129U] reads 0; that for UACGUAGGUGGUUUUCCCCUGAUAGUGCUAAGGGGGCCUGGAAGCUUGGACUGGGCCGAGCUCAACACAGCGUGGCAAAGUGGCUGUGGCUAGACUGCCUCUCUGGAUUCCUCGUCACUCAGCAGGGCAUCUCUGAGAGGAAUGCC [U45C A57C A140G], 0.11; that for UACGUAGGUGGUUUUCCCCUGAUAGUGCUAAGGGGGCCUGGAAGUUUGGACUGGGCAGAGCUCAACACAGCGUGGCAAAGUGGCUGUGGCUAGACUGCCACCCUGGAUUCCUCGUCACUCAGCAGGGCAACUCUGAGAGAAAUGCC [U100A U102C U130A], 0.85. For UACGUAGGUGGUUUUCCCCCGAUGGUGCUAAGGGGGCCUGGGAGUUUGGACUGGGCAGAGCUCAACACAUCGUGGCAAAGUGGCUGUGGCUAGACUGCCCCUCUGGAUUCCUCGUCACUCAGCAGGGCGUCUCUGAGAGAAAUGCC [U20C A24G A42G G70U U100C A129G], the self-cleavage was found to be 0. In the case of UACGUAGGUGGUUUUCCCCUGAUAGUGCUAAGGGGGCCUGGAAGUUUGGACUGGGCAGAGCUCAACUCAGCGUGGCAAAGUGGCUGUGGCUAGACUGCCUCUCUGGAUUCCUCGUCACUCAGCAGGGCAUCUCUGAGUGAAUUGCC [A67U A138U A142U], the self-cleavage was determined as 0.22. The result for UACGUAGGUGGUUUUCCCCUGAUAGUGCUAAGGGGGCCUGGAAGUUCGGACUGGGCAGAGCUCAACACAGCGUAGCAGAGUGGCUGUGGCUAGACUGCCUCUCUGGAUUCCUCGUCACUCAGCAGGGCAUCUCUGAGAGAAAUGCC [U47C G74A A78G] reads 0.89; that for UACGUAGGUGGUUCUCCCCUGAUAGUGCUAUGGGGGCCUGGAAGUUUGGUCUGGGCAGAGCUCAACACAGCGUGGCAAAGUAGCUAUGGCUAGACUGCCACUCUGGAUUCCUCGUCACUCAGCCGGGCAUCUCUGAGAGGAAUGCC [U14C A31U A50U G82A G86A U100A A124C A140G], 0.05; that for UACGUAGGUGGUUUUCCCCUGGUAGUGCUAAGGGGGCCUGGAAGUUUGGACUGGGCAGAGCUCAGCACAGCGUGGCAAAGUGGCUGUGGCUAGACUGCCUCUCUGGAUUCCUCGUCACACAGCAGGGCAUCUCUGAGAGAAAUGCC [A22G A65G U119A], 0.2. The result for UACGUAGGUGGUUUUCCCCUGAUAGUGCUAAGGGGGCCUGGAUGUUUGGACUGGGCAGAGCCCAACACAGCGUGGCAAAGUGGCUGUGGCUAGACUGCCUCUCUGGAUUCCUCGCCACUCAGCAGGGCAUCUCUGAGAGAAAUGCC [A43U U62C U115C] reads 0.19.

Take UACGUAAGUGGAAUUCCCCUGAUAGAGCUAAGGGGGCCCGGAAGUUUGGACCGGGCAGAGCUCAACACAGCGUGGCAAAGUGGCUGUGGUUAGACUGCCUCUCGGGAUUCCUCGUCACACAGCAGGGCAUCUCUGAGAGAAAUGCC [G7A U12A U13A U26A U39C U52C C90U U104G U119A]: the self-cleavage turned out to be 0.12. The result for UACGUAGGUGGUUUUCCCCUGAUAGUGCUAAGGGGGCCAGGAAGUUUGGACUGGGCAGAGCUCAACACAGCGUGGCAAAGUGGCUGUGGCUAGACUGCCUCUCUGGAUCCCUCGUCGCUCAGCAGGGCAUCUCUGAGAGAAAUGCC [U39A U109C A117G] reads 0.44. For UACGUAGGUGGUUUUCCCCCGAUAGUGCUAAGGGGGCCUGGAAGUUUGGACUGGGCAGAGCUCAACACGGCGUGGCUAAGUGGCUGUGGCUAGACUGCCUCUCUGGACUCCUCGUCACUCAGCAGGGCAUCUCUGAGAGAAGUGCC [U20C A69G A77U U108C A142G], the self-cleavage is 0.64. With UACGUAGGUGGUUUUCCCCUGAUAGUGCUAAGGGGGCCUGGAAGUUUGGACUGGGCAGAGCUCAACACAGCGUGGCAAAGUGGCUGUGGCUAAACUGCCUCUCCGGAUUCCUCGUCACUCAGCAGGGCAUCUCCGAGAGAAGUGCC [G93A U104C U134C A142G] the figure was 0.06; with UACGUAGGUGGUUUUCCCCUGAUAGUGCUAAGGGGGCCUGGAAGUUUGGACUGGGCAGAGCUUAGCACAGCGUGGCAGAGUGGCUGAGGCUAGACUGCCUCUCUGGAUUCCUCGUCACUCAGCAGGGCAUCUCUGAGAGAAAUGCC [C63U A65G A78G U87A], 0.03. Turning to UACGUAGGUGGUCUUCCCCUGAUAGUGCUAAGGGGGCCUGGAAGUUUGGACUGGGCAGAGCUCAACACAGUGUGGCAAAGUGGCUGUGGCUUGACUGCCUCUCUGGAUUCCUCGUCACUCAGCAGGGCAUCUCCGAGAGAAAUGCC [U13C C71U A92U U134C], the self-cleavage worked out at 0.43.

Take UACGUAGGUGGUUUUCCCCUGAUAGUGCUCAGGGGGCCUGGAAGUUUGGACUGGGCAGAGCUCAACACAGCGUGGCAAAGUGGCUGUGGCUAGACUGCCUCUCCGGAUUCCUCGUCCCUCAGCAGGGCAUCUCUGAGAGAAGUGCC [A30C U104C A117C A142G]: the self-cleavage is 0. Take UACGUAGGUGGUCUUCCCCUGAUAGUGCUAAAGGGGCCUGGAAGUUUGGACUGGGCAGAGCUCAACACAGCGUGGCAAAGUGGCUGUGGCUAGACUGCUUCUCUGGAUUCCUCGUCACUCAGCAGGGCAUCUCUGAGAGAAAUGCC [U13C G32A C99U]: the self-cleavage came to 0.62. On to UACGUAGGUGGUUUUCCCCUGAUAGUGCUAAGGGGGCCUGGAAGUUUGGACUGGGCAGAGCUCAACACAGCGUGGCAAAGUGGCUGUGGCUAGACUGCCUCUCUGGAUUCCUCGUCACACAGCAGGGCAUCUCUGAGAGGAGUGCC [U119A A140G A142G], for which the self-cleavage was determined as 0.34. With UACGUAGGUGGUUUUCCCCUGAUAGUGCUAGGGGGGCCAGGAAGUUUGGACUGGGCAGAGCUCAACACAGCGUGACAAAGUGGCUGUGGCUAGACUGCCUCCCUGGAUUCCUCGUCACUCAGCAGGGCAUCUCUGAGAGAAAUGCC [A31G U39A G75A U102C] the figure was 0.95; with UACGUAGGUGGUUUUCCCCUGAUAAUGCUAAGGGGGCCUGGAAGUUUGGACUGGGCAGAGCUCAACACAGCGUGGCAAAGUGGCUGAGGCUAGACUGCCUCUCUGGAUUCCUCGUCACUCAGCAGGGCAUCCCUGAGAGAAAUGCC [G25A U87A U132C], 0.09; with UACGUAGGCGGUUUUCCCCUGAUAGUGCUAAGGGGGCCUGGAAGUUUGGACUGGGCAGAGCUCAACACAGCGUGGCGAAGUGGCUGUGGCUAGUCUGCCUCUCUGGAUUCCUCGUCACUCAGCGGGGCAUCUCUGAGAGAAAUGCC [U9C A77G A94U A124G], 0.7. With UACGUAGGUGGUUUUCCCCUGAUAGUGCUAAGGGGGCCUGGAAGCUUGGACUGGGCAGAGCCCAACACAGCGUGGCAAAGUGGAUGUGGCUAGACUGCCUCUCUGGAUCCCUCGUCACUCAGCAGGGCAUCUCUGAGAGAAGUGCC [U45C U62C C84A U109C A142G] the figure was 0.03; with UACGUAGGUGGUUUUCCCCUGAUAGCGCUAAGGGGGCCUGGAAGUUUGGACUGGGCGGUGCUCAACACAGCGUGGCAAAGUGGCUGUGGCUUGACUGCCUCUCUGGAUUCCUCGUCACUCAGCAGGGCAUCUCUGAGAGAACUGCC [U26C A57G A59U A92U A142C], 1.25; with UACGUAGGUGGUUUUCCUCUGAUAGUGCUAAGGGGGCCUGGAAGCUUGGACUGGGCAGAGCUCAACACAGCGUGGCAAAGUGGCUGUGGCUAGACUGCCUCUCUGGAUACCUCGGCACUCAACAGGGCAUCUCUGAGAGAAAUGCC [C18U U45C U109A U115G G122A], 1.25. With UACGUAGGUGGUUUUCCCCUGAUAGUGCUAAGGGGGCCUGGAAGUUUGGACUGGGCAGAGCCCAACACAGCGUGGCAGAGUGGCUGUGGCUAGACUGCCUCCCUGGAUUCCUCGUCACUCAGCAGGGCAUCUCUGAGAGAAAUGCC [U62C A78G U102C] the figure was 0.18. Take UACGUAGGCGGUCUUCCCCUGAUAGUGCUAAGGGGGCCUGGAGGUUUGGACUGGGCAGAGCUCAACACAGCGGGGCAAAGUGGCUGUGGCUAGACUGCCUCUCUGGAUUCCUCGACACUCAGCAGGGCAUCUCUGAGAGAAAUGCC [U9C U13C A43G U73G U115A]: the self-cleavage turned out to be 0.48.

As for UACGUAGGCGGUUUCCCCCUGUUAGUGCUAAGGGGGCCUGGAAGUUUGGACUGGGCAGAGCUCAACACAGCGUGGCGUAGUGGCUGUGGCUAGACUGCCUCUCUGGAUUCCUCGUCACUCAGCAGGGCAUCUCUGAGAGAAAUGCC [U9C U15C A22U A77G A78U], the self-cleavage came out at 1.88. Consider UACGUAGGUGGUUUUCCCCCGAUAGUGCUAAGGGGGCCUGGAAGUUUGGACUGGGCAGGGCUCAACACAGCGUGGCAAAGUGGCUGUGGCUAGACUGCCUCUCUGGAUUCCUCGUCACUCAGCAGGGCAUUUCUGAGAGAAAUGCC [U20C A59G C131U], for which the self-cleavage was determined as 0.29. With UACGUAGGUGGUUUUCCCCAGAUAGUGCUAAGGGGGCCUGGAAGUUUGGGCUGGGCAGAGCUCAACACAGCGUGGCAAAGUGGCUGUGGCUAGACUGCCUCUCUGGAUUCCUCGUCACUCAGCAGGGCAUCUCUGAGAGAAACGCC [U20A A50G U143C] the figure was 0.29. The result for UACGUAGGUGGUUUUCCCCUGAUAGUGCUAAGGGGGCCUGGAAGUUUGGACAGGGCAGUGCUCAACACAGCGUGGCUAAGUGGCUGUGGCUAGACUGCCUCUCUGGAUUCCUCGUCACUCAGCAGGGCAUCUCUGAGAGAAAUGCC [U52A A59U A77U] reads 0.11; that for UACGUAGGUGGUUUUCCCUUGAUAGUGCUAAGGGGGCCUGGAAGUUUGGACUGGGCAGUGCUCAACACAGCGUGGCAAAGUGGCCGUGGCUAGACUGCCUCUCUGGAUUCCUCGUCACUCAGCAGGGCAUCCCUGAGAGAAAUGCC [C19U A59U U85C U132C], 0.24. With UACGUAGGUGGUUUUCCCCUGAUAGUGCUAAGGGGGCCUGGAAGUUUGGACUGGGCGGAGCUCAACACAGCGUGGCAGAGUGGCUGUGGCUAGACUGCCACUCUGGAUUCCUCGUCACUCAGCAGGGCAUCUCUGAGAGAAAUGCC [A57G A78G U100A] the figure was 0.77; with UACGUAGGUGGUUUUCCCCUGAUAGUGCUAAGGGGGGCUGGAAGUCUGGACUGGGCAGAGCCCAACACAGCGUGGCAAAGUGGCUGUGGCUAGUCUGCCUCUCUGGAUUCCUUGUCACUCAGCAGGGCAUCUCUGAGAGAAAUGCC [C37G U46C U62C A94U C113U], 0.1. With UACGUAGGUGGUUUUCCCCUGAUAGUGCUAAGGGGGCCUGGAAGUCUGGACUGGGCAGAGCUCAACACAGCGUGGAAAAGUGGCUGUGGCUAGACUGCCUCCCUGGAUUCCUCGUCACUCAGCAGGGCAUCUCUGAGAGAAAUGCC [U46C C76A U102C], the self-cleavage worked out at 1.55. With UACGUAGGUGGUUUUCCCCUGAUAGUGCUAAGGGGGCCUGGGAGUCUGGACUGGGCAGAGCUCAGCACAGCGUGGCAAAGUGGCUGUGGCUAGACUACCUCUCUGGAUUCCUCGUCACUCAGCAGGGCAUCUCUGAGGGACGUGCC [A42G U46C A65G G97A A138G A141C A142G] the figure was 0.19. With CACGUAGGUGGUUGUCCCCUGAUAGUGCUAAGGGGGCCUGGAAGCUUGGACUGGGCAGGGCUCAACACAGCGUGGCAAAGUGGCAGUGGCUAGACUGCCUCUCUGGAAUCCUCGUCACUCGGCAGGGCAUCUCUGAGAGAAAUGCC [U1C U14G U45C A59G U85A U108A A121G] the figure was 0. The result for UACGUAAGUGGCUUUCCCCUGAUAGUGCUAAGGGGGCCUGGAAGCUUGGACUGGGCAGAGCCCAACACAGUGUGGCAAAGUGGCUGUGGCUAGACUGCCUCUCUGGAUUCCUCGUCACUCAGCAGGGCAUCUCUGAGAGAAAUGCC [G7A U12C U45C U62C C71U] reads 0.09.
